{"source": "paper PMC11911400", "about": "“Mechanism of ASF1 engagement by CDAN1” (Nature Communications, 2025)", "binders": {"B1": {"name": "FLAG-tagged CDIN1 (F-CDIN1) (natural protein, UniProt Q9Y2V0 1-281, looked up)", "chain": "MILTKAQYDEIAQCLVSVPPTRQSLRKLKQRFPSQSQATLLSIFSQEYQKHIKRTHAKHHTSEAIESYYQRYLNGVVKNGAAPVLLDLANEVDYAPSLMARLILERFLQEHEETPPSKSIINSMLRDPSQIPDGVLANQVYQCIVNDCCYGPLVDCIKHAIGHEHEVLLRDLLLEKNLSFLDEDQLRAKGYDKTPDFILQVPVAVEGHIIHWIESKASFGDECSHHAYLHDQFWSYWNRFGPGLVIYWYGFIQELDCNRERGILLKACFPTNIVTLCHSIA", "notes": "C15orf41); cDNA synthesized by IDT; source: Expi293, transiently transfected, in lysate and purified in complexes (anti-FLAG, Strep-Tactin); not shown: 3xFLAG, N-terminal, kept"}}, "key": {"[1]": {"target": "T1, Strep-CDAN1 BDA1* HMHA2* BDA2* (three elements mutated) (human) (UniProt Q8IWY9)", "T1 sequence": "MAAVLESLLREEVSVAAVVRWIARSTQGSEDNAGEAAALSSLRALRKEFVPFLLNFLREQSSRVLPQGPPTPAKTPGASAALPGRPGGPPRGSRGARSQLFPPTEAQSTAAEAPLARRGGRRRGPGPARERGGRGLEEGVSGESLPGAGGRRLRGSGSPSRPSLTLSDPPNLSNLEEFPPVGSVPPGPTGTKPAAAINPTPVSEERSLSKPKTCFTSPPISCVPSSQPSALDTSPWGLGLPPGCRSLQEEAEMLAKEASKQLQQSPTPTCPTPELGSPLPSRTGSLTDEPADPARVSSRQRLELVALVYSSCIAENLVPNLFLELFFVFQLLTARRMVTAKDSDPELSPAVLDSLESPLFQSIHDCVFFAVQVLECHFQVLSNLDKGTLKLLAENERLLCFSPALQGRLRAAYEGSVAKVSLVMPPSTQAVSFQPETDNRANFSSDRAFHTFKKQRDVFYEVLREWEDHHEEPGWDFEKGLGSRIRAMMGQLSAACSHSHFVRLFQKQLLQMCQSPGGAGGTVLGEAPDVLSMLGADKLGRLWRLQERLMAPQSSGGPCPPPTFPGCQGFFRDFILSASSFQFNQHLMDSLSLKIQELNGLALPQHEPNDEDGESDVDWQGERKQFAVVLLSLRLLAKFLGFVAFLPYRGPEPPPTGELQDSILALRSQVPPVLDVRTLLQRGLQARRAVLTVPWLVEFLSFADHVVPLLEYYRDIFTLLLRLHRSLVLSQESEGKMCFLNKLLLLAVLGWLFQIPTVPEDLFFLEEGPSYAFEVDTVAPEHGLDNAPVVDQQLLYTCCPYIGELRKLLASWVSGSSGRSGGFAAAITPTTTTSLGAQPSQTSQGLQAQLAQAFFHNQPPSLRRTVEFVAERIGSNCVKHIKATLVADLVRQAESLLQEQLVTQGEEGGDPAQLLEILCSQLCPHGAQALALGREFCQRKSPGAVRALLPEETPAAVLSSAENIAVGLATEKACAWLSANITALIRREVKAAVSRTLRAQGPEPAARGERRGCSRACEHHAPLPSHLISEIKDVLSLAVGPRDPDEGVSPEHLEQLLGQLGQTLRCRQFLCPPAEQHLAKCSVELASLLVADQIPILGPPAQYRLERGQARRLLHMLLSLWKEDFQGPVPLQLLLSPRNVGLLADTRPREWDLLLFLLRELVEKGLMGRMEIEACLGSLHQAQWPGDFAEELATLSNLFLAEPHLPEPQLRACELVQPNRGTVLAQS", "experiment": "pull-down; Strep-Tactin pulldown of transiently transfected ST-CDAN1 variants from Flp-In 293 T-REx lysates; endogenous ASF1A, ASF1B and CDIN1 detected by immunoblotting; IP buffer with 1% Triton X-100, 1 hr at 4 °C"}, "[2]": {"target": "T2, Strep-CDAN1 HMHA1* BDA1* HMHA2* BDA2* (all four binding elements mutated) (human) (UniProt Q8IWY9)", "T2 sequence": "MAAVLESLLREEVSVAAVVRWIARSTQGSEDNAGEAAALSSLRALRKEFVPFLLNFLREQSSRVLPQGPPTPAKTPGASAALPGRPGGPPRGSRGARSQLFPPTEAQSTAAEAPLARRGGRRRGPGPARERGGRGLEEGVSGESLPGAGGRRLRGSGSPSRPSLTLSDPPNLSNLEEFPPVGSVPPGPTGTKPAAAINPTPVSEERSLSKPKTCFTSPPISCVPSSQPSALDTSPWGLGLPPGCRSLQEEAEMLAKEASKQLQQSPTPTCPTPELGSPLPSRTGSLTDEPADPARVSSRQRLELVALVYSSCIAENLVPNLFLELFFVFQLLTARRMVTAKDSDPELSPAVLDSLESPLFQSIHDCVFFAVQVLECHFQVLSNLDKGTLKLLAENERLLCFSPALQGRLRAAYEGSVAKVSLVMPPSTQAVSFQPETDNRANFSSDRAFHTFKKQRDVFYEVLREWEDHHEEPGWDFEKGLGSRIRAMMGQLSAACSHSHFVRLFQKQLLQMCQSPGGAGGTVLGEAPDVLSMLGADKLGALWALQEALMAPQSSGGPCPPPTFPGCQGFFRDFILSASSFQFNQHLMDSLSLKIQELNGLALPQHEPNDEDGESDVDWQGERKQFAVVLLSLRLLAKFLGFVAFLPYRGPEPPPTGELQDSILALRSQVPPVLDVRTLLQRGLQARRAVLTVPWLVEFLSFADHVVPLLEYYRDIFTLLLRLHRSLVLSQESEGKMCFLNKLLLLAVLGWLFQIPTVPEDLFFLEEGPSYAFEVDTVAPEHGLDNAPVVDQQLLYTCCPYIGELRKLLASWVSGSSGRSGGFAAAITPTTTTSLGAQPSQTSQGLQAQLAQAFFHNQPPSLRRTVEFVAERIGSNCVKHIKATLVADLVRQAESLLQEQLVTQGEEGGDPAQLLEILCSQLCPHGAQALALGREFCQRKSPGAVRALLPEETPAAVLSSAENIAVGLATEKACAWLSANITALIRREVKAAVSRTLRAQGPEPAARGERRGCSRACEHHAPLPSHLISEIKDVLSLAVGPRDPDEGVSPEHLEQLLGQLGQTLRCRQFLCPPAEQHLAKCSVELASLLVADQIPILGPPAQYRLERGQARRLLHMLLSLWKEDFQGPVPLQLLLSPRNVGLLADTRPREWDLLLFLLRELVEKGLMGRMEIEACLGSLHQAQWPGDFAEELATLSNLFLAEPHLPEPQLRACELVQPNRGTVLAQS", "experiment": "pull-down; Strep-Tactin pulldown of transiently transfected ST-CDAN1 variants from Flp-In 293 T-REx lysates; endogenous ASF1A, ASF1B and CDIN1 detected by immunoblotting; IP buffer with 1% Triton X-100, 1 hr at 4 °C"}}, "note": "These are yes or no findings as the source states them, for the method shown. Binding seen in cells or lysates may run through a third protein. Some results given as binding are weak or reduced against the parent protein; the word gives no strength.", "data": [{"binder": "B1", "values": [{"measurement": "binding", "setting": "[1]", "value": "binds"}, {"measurement": "binding", "setting": "[2]", "value": "binds"}]}]}
